In PubChem BioAssay (NCATS):
The inconclusive results got no clear call from the source; some entries with a clear call stand among them for comparison. A call without a number means that no potency is given here. For some assays here: Potencies of inconclusive entries are doubtful fits and often do not repeat. Active and inactive are the calls of the source. The call rests on the fitted dose curve; in most records, active means well fitted curve in the direction sought with a large enough effect; inconclusive means small, poorly fitted or top-dose-only effect, or another doubt; inactive means no such curve, though single readings can be large; an effect the other way counts as inactive or inconclusive.

Legend:
[1] = BET inhibitor-based combinations targeting novel dependencies in MECOM-rearranged (r) AML: HNT-34 cell line (AID 2202234); settings: HNT-34 AML viability, CellTiter-Glo luminescence, 48 h; series mostly up to 46 µM; further: nearly all actives have a fitted effect of over 35% in size
Procedure, shortened: (§1)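 Luminescent ATP readout (CellTiter-Glo, 15 min at room temperature) after 48 hr drug exposure gave viability. Dose-response curves, normalized to DMSO and empty-well controls, were summarized as area under the curve and its mean-centred Z-score.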

[2] = BET inhibitor-based combinations targeting novel dependencies in MECOM-rearranged (r) AML: MV-4-11 cell line (AID 2202233); settings: MV-4-11 AML viability, CellTiter-Glo luminescence, 48 h; series mostly up to 46 µM; further: nearly all actives have a fitted effect of over 45% in size
Procedure, shortened: as §1

[3] = BET inhibitor-based combinations targeting novel dependencies in MECOM-rearranged (r) AML: AML-191 cell line (AID 2202236; further: nearly all actives have a fitted effect of over 35% in size); settings: AML-191 viability, CellTiter-Glo luminescence, 48 h; series mostly up to 46 µM
Procedure, shortened: (§2)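 Luminescent ATP readout (CellTiter-Glo) after 48 hr drug exposure gives viability. Curves span 11 concentrations and are normalized to DMSO and empty wells. Activity is reported as area under the curve and its Z-transform within each cell line.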

[4] = BET inhibitor-based combinations targeting novel dependencies in MECOM-rearranged (r) AML: AML-194 cell line (AID 2202237; further: nearly all actives have a fitted effect of over 40% in size); settings: AML-194 (MECOM-r AML) viability, CellTiter-Glo, 48 h; series mostly up to 46 µM
Procedure, shortened: as §2
Potency means the concentration at half of the fitted maximal effect; tags describe the fitted curve by direction and shape.

COc1nc(C)cnc1NS(=O)(=O)c1cccnc1-c1ccc(-c2nnco2)cc1
Potency [1]: inactive

CCCS(=O)(=O)c1nc(NC2CC2)cc(-c2ccc3c(ccn3C3CC(C)(C)NC(C)(C)C3)c2)n1
Potency [1]: active: 3120 nM

Nc1nc(N)nc(-c2cc(Cl)ccc2Cl)n1
Potency [2]: inconclusive: 11800 nM [inhibitor, single point] | Potency [3]: inactive | Potency [4]: inactive

COc1ccc(Cl)cc1-c1cc(=O)[nH]c(=S)n1CC(N)=O
Potency [1]: inactive

C[C@H]1COCCN1c1cc(C2(S(=O)(=O)C3CC3)CC2)nc(-c2ccc(NC(=S)NCCO)cc2)n1
Potency [2]: active: 93.4 nM | Potency [3]: inconclusive: 83.3 nM [inhibitor, full curve] | Potency [4]: inconclusive: 372 nM [inhibitor, full curve]

CC(C)c1cc(C(=O)N2Cc3ccc(CN4CCN(C)CC4)cc3C2)c(O)cc1O
Potency [2]: active: 74.2 nM | Potency [3]: inconclusive: 263 nM [inhibitor, full curve] | Potency [4]: inconclusive: 332 nM [inhibitor, full curve]

O=S(=O)(O)CCS
Potency [2]: inactive | Potency [3]: inactive

Cc1oc(=O)oc1CN1CCN(c2cc3c(cc2F)c(=O)c(C(=O)O)c2n3C(C)S2)CC1 (stereo not given)
Potency [2]: inconclusive: 26300 nM [inhibitor, single point] | Potency [3]: inactive

COc1cc([C@@H]2c3cc4c(cc3[C@H](O)[C@H]3COC(=O)[C@@H]23)OCO4)cc(OC)c1OC
Potency [1]: active: 417 nM

CNC[C@H](O)[C@@H](O)[C@H](O)[C@H](O)CO
Potency [2]: inactive | Potency [3]: inactive

CC(C)(OCc1nn(Cc2ccccc2)c2ccccc12)C(=O)O
Potency [1]: inactive
